In publication PMC4336329 (PLoS ONE, 2015):
Out of some 310,000 compounds screened, about 2,200 (0.71%) showed an effect of 50% or more. Effects have a minus sign here. This is one part of the list.

Each compound was assayed against human ether-à-go-go-related gene (hERG) potassium channel (human, UniProt Q12809) (assay: primary screen, population patch clamp on CHO cells stably expressing hERG).
Sequence of human ether-à-go-go-related gene (hERG) potassium channel (Q12809 whole entry, looked up): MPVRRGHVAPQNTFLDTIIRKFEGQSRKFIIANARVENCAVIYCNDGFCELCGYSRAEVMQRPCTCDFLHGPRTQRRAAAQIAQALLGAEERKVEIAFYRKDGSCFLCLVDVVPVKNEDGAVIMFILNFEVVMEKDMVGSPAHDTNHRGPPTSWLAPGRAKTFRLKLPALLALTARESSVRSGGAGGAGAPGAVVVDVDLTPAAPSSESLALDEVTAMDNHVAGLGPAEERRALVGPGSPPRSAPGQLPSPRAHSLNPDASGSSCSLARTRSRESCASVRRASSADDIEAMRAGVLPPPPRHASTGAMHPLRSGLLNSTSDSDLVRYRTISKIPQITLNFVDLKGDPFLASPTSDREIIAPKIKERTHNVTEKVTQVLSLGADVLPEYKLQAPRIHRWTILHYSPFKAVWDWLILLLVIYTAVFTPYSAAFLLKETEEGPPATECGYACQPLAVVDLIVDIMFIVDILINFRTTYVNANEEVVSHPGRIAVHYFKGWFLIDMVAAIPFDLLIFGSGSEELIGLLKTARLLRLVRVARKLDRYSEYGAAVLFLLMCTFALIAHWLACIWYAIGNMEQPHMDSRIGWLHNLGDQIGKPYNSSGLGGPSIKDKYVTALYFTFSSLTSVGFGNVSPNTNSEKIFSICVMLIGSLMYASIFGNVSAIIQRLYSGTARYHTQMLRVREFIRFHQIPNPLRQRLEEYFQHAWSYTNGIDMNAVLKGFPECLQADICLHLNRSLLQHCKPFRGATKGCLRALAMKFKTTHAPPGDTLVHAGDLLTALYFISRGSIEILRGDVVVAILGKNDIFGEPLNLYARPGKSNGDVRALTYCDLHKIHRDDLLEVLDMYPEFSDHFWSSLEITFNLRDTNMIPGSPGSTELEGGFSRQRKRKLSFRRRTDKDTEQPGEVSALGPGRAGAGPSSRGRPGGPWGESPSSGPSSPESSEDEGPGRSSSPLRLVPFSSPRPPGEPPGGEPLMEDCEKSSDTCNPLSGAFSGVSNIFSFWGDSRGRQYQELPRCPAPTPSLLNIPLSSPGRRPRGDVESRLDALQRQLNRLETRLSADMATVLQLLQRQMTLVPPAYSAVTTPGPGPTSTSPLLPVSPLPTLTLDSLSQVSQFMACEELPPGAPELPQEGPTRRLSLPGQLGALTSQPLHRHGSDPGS

Structure (SMILES)	hERG current change (%, negative = inhibition) at 1uM [%]
Cc1cc(=O)oc2c3c(cc(OCC(=O)Nc4ccc(CCO)cc4)c12)OC(C)(C)CC3	18.5
O=C(CSc1nnnn1C1CCCC1)NCc1cccs1	-6.69
C=CCNC(=O)c1ccccc1NC(=O)C1COc2ccccc2O1 (stereo not drawn)	12.2
O=C(Nc1ccccc1)C1CCCCC1	5.32
Cc1ccc(CNCC2CCCO2)o1 (stereo not drawn)	4.27
CCOC(=O)c1ccc(COC(=O)CCc2nc3ccccc3[nH]c2=O)o1	10.6
O=C(O)CN1C(=O)S/C(=C\c2ccc3c(c2)OCO3)C1=O	3.59
CCC(=O)c1ccc(OCC(=O)Nc2ccc(N3CCOCC3)cc2N2CCOCC2)cc1	12.3
O=C(Cc1ccc(F)cc1)Nc1ccc(Cl)cn1	14.8
O=C(N/N=C/c1ccccc1)c1ccc(N2CCCC2=O)cc1	11.9
CC(C)c1ccc(OCC(O)CN2CCN(c3ccccn3)CC2)cc1.Cl (stereo not drawn)	-27.7
CN1CCN(C(=O)C2(NC(=O)Nc3ccccc3Cl)CCCCC2)CC1	16.2
CC(Oc1cc2oc(=O)c3c(c2cc1Cl)CCC3)C(=O)NCCCN1CCCC1=O (stereo not drawn)	14
CC(=O)N1c2ccc(S(=O)(=O)N3CCC(C(=O)N4CCN(c5cc(Cl)ccc5C)CC4)CC3)cc2CC1C (stereo not drawn)	-0.163
COc1ccc(-c2cc(C)no2)cc1S(=O)(=O)NCc1cccc(C)c1	-1.81
COCCc1ccc(OCC(O)CNC(C)C)cc1.O=C(O)[C@H](O)[C@@H](O)C(=O)O (stereo not drawn)	4.84
Cc1cc(N2C(=O)C3C4CC(C(Br)C4Br)C3C2=O)no1 (stereo not drawn)	30
O=C(Nc1ccc2c(c1)OCO2)c1c(F)c(F)c(F)c(F)c1F	1.53
Cc1cc(C)cc(CSc2nnc(C)c(=O)[nH]2)c1	-4.44
O=C(NCCN1CCN(C(=O)Nc2ccccc2)CC1)Nc1ccccc1	8.07
CC12CCC(CC1=O)C2(C)C (stereo not drawn)	17.3
Cc1ccccc1NC(=O)COc1ccc(Br)cc1C	18.6
COC1(c2ccccc2)NC(=S)NN=C1c1ccccc1 (stereo not drawn)	8.24

Structure (SMILES)	hERG current change (%, negative = inhibition) at 1uM [%]
Cc1ccc2cc(CCNC(=O)C3CCCC3)c(=O)[nH]c2c1	11.2
CC(O)CCC(=O)NNC1=CC(=O)CC(C)(C)C1 (stereo not drawn)	1.27
COc1cc(C(O)c2nc3ccccc3s2)cc(OC)c1OC (stereo not drawn)	13
CCCNC(=O)c1cc(Cl)c(NC(=O)C2=C(C)OCCS2)cc1OC	-13.4
O=C(CS(=O)(=O)c1ccc(F)cc1)Nc1nccs1	12.7
O=C(CSc1n[nH]c(=O)[nH]c1=O)NC1CC1	11.3
COc1ccc(C2/C(=C(/O)c3ccc(S(=O)(=O)N4CCOCC4)cc3)C(=O)C(=O)N2CCN2CCOCC2)cc1 (stereo not drawn)	10
COCCCNC(=S)N1CCN(c2nc(C)nc3sc4c(c23)CCCC4)CC1	17.4
O=C(CSc1nnc(-c2ccco2)o1)NC(=O)Cc1ccccc1	8.2
Cc1ccc(CSc2nc3c(cc2C#N)CCC3)cc1	8.07
COc1ccc(N2CCN(Cc3nc(-c4ccc(Cl)cc4Cl)no3)CC2)cc1	6.92
O=C(NCc1ccco1)C(c1ccccc1)N(Cc1ccccc1)C(=O)Cn1nnc2ccccc21 (stereo not drawn)	10.1
Cc1cc2ccccc2n1CCNC(=O)c1cccs1	11.5
CS(=O)(=O)N(CC(=O)NCc1ccco1)c1cc(C(F)(F)F)ccc1Cl	5.01
COc1ccc(Cl)cc1S(=O)(=O)N1CCCc2ccccc21	4.35
CCOC(=O)CCCCC(=O)c1[nH]c(=O)[nH]c1Cn1ccnc1	12.6
COc1ccc(C(=O)NNC(=O)C(=O)Nc2cccc3ccccc23)cc1	14.5
CN1CCN(C(CNS(=O)(=O)c2ccc([N+](=O)[O-])cc2)c2ccc(F)cc2)CC1 (stereo not drawn)	-40.1
CCCCCn1c(SCCN2CCOCC2)nc2c1c(=O)[nH]c(=O)n2C	-40.7
O=C(COC(=O)c1nc(Cl)c(Cl)c(Cl)c1Cl)NCc1ccccc1	3.59
O=C(O)c1[nH]c2ccccc2c1C(c1c(F)cccc1Cl)c1c(C(=O)O)[nH]c2ccccc12	11.6
O=C(NCCC1CCCCN1S(=O)(=O)c1ccccc1)C(=O)NCc1ccncc1 (stereo not drawn)	11.9
Cc1ccc(C(=O)/C=C/c2ccccc2)o1	6.95

Structure (SMILES)	hERG current change (%, negative = inhibition) at 1uM [%]
CCOC(=O)c1cccc(C2=CC(=O)C[C@H](c3ccc(OC)cc3)C2)c1	12.4
COc1ccc2[nH]c(C)c(CCNC(=S)Nc3ccc(F)cc3)c2c1	3.08
COc1ccc(C)cc1S(=O)(=O)N(CC(=O)O)c1ccc(C)cc1	19.4
CCOCC(=O)Nc1ccc(OCc2ccccc2)cc1	8.81
Cc1ccc(C(=O)Nc2cccc(NC(=O)c3cccs3)c2)c(C)c1	8.47
O=C(CNCC1CCCO1)N1CCN(S(=O)(=O)c2ccc3ccccc3c2)CC1.O=C(O)C(=O)O (stereo not drawn)	2.41
Cc1cccc(C)c1NC(=O)c1c(-c2ccccc2)noc1C	0.262
CC1C2Cn3c(nc4ccccc43)C1N(C(C)C)O2 (stereo not drawn)	9.32
O=C(O)CCCC(=O)N1CCN(C(c2ccccc2)c2ccccc2)CC1	5.16
COC(=O)c1cc(NC(=O)CC2NC3CCCCC3NC2=O)cc(C(=O)OC)c1 (stereo not drawn)	-4.52
O=c1c2ccccc2nnn1CSc1nnc(-c2ccc3c(c2)OCO3)o1	9.38
O=C(COc1ccccc1)NC(=S)Nc1cccc2cc(O)ccc12	6.78
O=C(O)c1ccccc1.OC(CNCC1CCCO1)Cn1c2ccc(Cl)cc2c2cc(Cl)ccc21 (stereo not drawn)	7
CC1=C(C(N)=O)C(c2cccs2)n2nc(-c3cccc(Cl)c3)nc2N1 (stereo not drawn)	6.41
CCN(CC)S(=O)(=O)c1cccc(-c2n[nH]c(=S)n2/N=C/c2ccc(Br)cc2)c1	11
CC(/C=C1\SC(=S)N(CCCC(=O)Nc2ccc(C(=O)O)c(O)c2)C1=O)=C\c1ccccc1	13.3
CC(C)(C)OC(=O)NCCc1nnc(SCC(N)=O)o1	7.47
CCCCNC(=O)Nc1cnn(CC)c1C(N)=O	11.3
COc1ccccc1CNC(=O)c1ccc2nc(N3CCOCC3)sc2c1	-3.47
CC1CCN(c2ccc(C=O)o2)CC1	9.04
COc1ccc(N(C(=O)Cn2nnc3ccccc32)C(C(=O)NCc2ccco2)c2ccc(C)o2)cc1 (stereo not drawn)	4.86
CN(C)C(=O)CSc1nc2ccc(C(=O)c3ccccc3)cc2[nH]1	12.3
CCCc1nn(C)c(C(=O)Nc2ccc(CC)cc2)c1Cl	10.7

Structure (SMILES)	hERG current change (%, negative = inhibition) at 1uM [%]
O=C(CCCCCn1c(=S)[nH]c2cc3c(cc2c1=O)OCO3)N1CCN(c2ccccc2)CC1	18.1
COc1ccc(C(=O)NCc2nnc(SCC(=O)Nc3cc(Cl)ccc3OC)o2)cc1	-1.85
Cc1c(Cc2ccccc2)c(=O)oc2cc(OC(=O)c3ccccc3)ccc12	17.4
CC(NC(=O)Cn1c(NCCO)nc2ccccc21)C1CC2CCC1C2 (stereo not drawn)	10.5
Cc1c(C(=O)N2CCN(c3ccccc3)CC2)oc2c(Cl)cccc12	9.8
COc1cccc(S(=O)(=O)N2CCN(Cc3ccc4c(c3)OCO4)CC2)c1	13.7
COc1ccc2c(c1)C1=NN(/C(C)=C/C(C)=O)C(c3cccc(F)c3)C1CC2 (stereo not drawn)	8.01
COc1cc(C(=O)Nc2ccc(NC(=O)C3CC3)nc2)cc(OC)c1OC	8.4
CC1CN(Cc2cc(=O)oc3cc(O)ccc23)CC(C)O1 (stereo not drawn)	7.89
CCNc1nc(NCC)nc(Oc2ccc(C(=O)OC)cc2)n1	8.78
CN(C)C=NC(=O)/C(C#N)=C1\CCc2ccccc2N1	0.195
Cl.N[C@@H](Cc1ccccc1)c1nnc(SCc2ccccc2Cl)o1	-9.74
Cc1cc(C)nc(NC(=O)/C=C/c2ccc(Cl)cc2)n1	3.87
Cc1ccc(NC(=O)c2ccc(Oc3ncccn3)cc2)cc1	9.38
CC(C)(C)NCC(O)COc1ccc(Br)cc1.Cl (stereo not drawn)	3.17
CC1(C)C(C=C(Cl)Cl)C1C(=O)N/N=C/c1ccccc1F (stereo not drawn)	13.6
Cc1cc(=O)oc2c(C)c(OC(C)C(=O)NCC3CCC(C(=O)O)CC3)ccc12 (stereo not drawn)	12.4
Cc1ccc2cccc(OC(=O)/C=C\c3ccccc3)c2n1	0.712
CCOc1ccc(N(C)C(=O)CCc2nnc3ccc(N4CCC5(CC4)OCCO5)nn23)cc1	13.2
COC(=O)c1ccccc1NC(=O)CSc1ncccn1	10.5
O=S(=O)(c1ccc(F)c(F)c1)N1CCCc2ccccc21	12.2
